# Results reported in PubChem BioAssay AID1745853 (National Center for Advancing Translational Sciences (NCATS), 2022).
# The list shows a part of the results. Further columns of the screen follow, without active or inactive calls.
# How the values were obtained:
# Experiment in all cases: Primary Screen for Target Class Profiling of Small Molecule Inhibitors of Methyltransferases
# [1] = molecular target: Glycine N-methyltransferase (Homo sapiens) (UniProt Q14749); conditions: purified enzyme, MTase-Glo SAH luminescence; measured here: GNMT inhibition; at 40 µM; stronger effect = lower value
# Outline: (§1)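 Each enzyme was reacted with SAM and its substrate, with compounds tested once at 40 uM; SAH formed was read by MTase-Glo luminescence.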
# [2] = molecular target: Guanidinoacetate N-methyltransferase (Homo sapiens) (UniProt Q14353); conditions: purified enzyme, MTase-Glo SAH luminescence; measured here: GAMT inhibition; at 40 µM; stronger effect = lower value
# Outline: as §1
# [3] = molecular target: Histamine N-methyltransferase (Homo sapiens) (UniProt P50135); conditions: purified enzyme, MTase-Glo SAH luminescence; measured here: HNMT inhibition; at 40 µM; stronger effect = lower value
# Outline: as §1
# [4] = molecular target: Nicotinamide N-methyltransferase (Homo sapiens) (UniProt P40261); conditions: purified enzyme, MTase-Glo SAH luminescence; measured here: NNMT inhibition; at 40 µM; stronger effect = lower value
# Outline: as §1
# [5] = molecular target: Phenylethanolamine N-methyltransferase (Homo sapiens) (UniProt P11086); conditions: purified enzyme, MTase-Glo SAH luminescence; measured here: PNMT inhibition; at 40 µM; stronger effect = lower value
# Outline: as §1
# % is set by controls: 0 for no effect and ±100 for the full control effect.
smiles,measurement,setting,value
CCOc1cc(N2CCC(O)CC2)ccc1Nc1ncc2c(n1)N(C1CCCC1)CCC(=O)N2C,"activity change, negative = inhibition",[1],-11.6%
same,"activity change, negative = inhibition",[2],-9.72%
same,"activity change, negative = inhibition",[3],4%
same,"activity change, negative = inhibition",[4],-35.9%
same,"activity change, negative = inhibition",[5],-11.2%
FC(F)(F)c1ccccc1-c1cc(C(F)(F)F)c2nc(C3=NOC4(CCCCC4)C3)[nH]c2c1,"activity change, negative = inhibition",[1],0.983%
same,"activity change, negative = inhibition",[2],-23.5%
same,"activity change, negative = inhibition",[3],-3.55%
same,"activity change, negative = inhibition",[4],-35.7%
same,"activity change, negative = inhibition",[5],-14.2%
CCOC(=O)c1cc2n(n1)CC(C)(C(=O)NCc1ccc(F)cc1)N(Cc1ccccc1OCC)C2=O (stereo not drawn),"activity change, negative = inhibition",[1],4.95%
same,"activity change, negative = inhibition",[2],0%
same,"activity change, negative = inhibition",[3],9.58%
same,"activity change, negative = inhibition",[4],12%
same,"activity change, negative = inhibition",[5],6.83%
c1ccc2c(c1)CCCC2C1=NCCN1 (stereo not drawn),"activity change, negative = inhibition",[1],3.68%
same,"activity change, negative = inhibition",[2],15.1%
same,"activity change, negative = inhibition",[3],-8.37%
same,"activity change, negative = inhibition",[4],-1.36%
same,"activity change, negative = inhibition",[5],7.34%
O=C1O[C@H](C(O)CO)C(=O)C1=O (stereo partly drawn),"activity change, negative = inhibition",[2],4.42%
same,"activity change, negative = inhibition",[4],-4.23%
same,"activity change, negative = inhibition",[5],3.9%
Cc1cn(CC(=O)N2CC[C@@](C)(O)[C@@H](Cc3ccccc3)C2)c(=O)[nH]c1=O,"activity change, negative = inhibition",[1],1.51%
same,"activity change, negative = inhibition",[2],1.24%
same,"activity change, negative = inhibition",[3],3.38%
same,"activity change, negative = inhibition",[4],-1.43%
same,"activity change, negative = inhibition",[5],-0.269%
O=S(=O)(c1ccc(Br)cc1)c1nnn2c1nc(NCCc1c[nH]c3ccccc13)c1ccccc12,"activity change, negative = inhibition",[1],2.37%
same,"activity change, negative = inhibition",[2],0%
same,"activity change, negative = inhibition",[3],-35.3%
same,"activity change, negative = inhibition",[4],-1.66%
same,"activity change, negative = inhibition",[5],-0.857%
COc1ccc2cc3n(c2c1)CC(C)(C(=O)NC1CCCCC1)N(Cc1cccs1)C3=O (stereo not drawn),"activity change, negative = inhibition",[1],0.989%
same,"activity change, negative = inhibition",[2],6.23%
same,"activity change, negative = inhibition",[3],0.875%
same,"activity change, negative = inhibition",[4],-5.56%
same,"activity change, negative = inhibition",[5],-3.45%
Cc1nnnn1CCC(=O)Nc1nn(C)c2cccc(N3CCOCC3)c12,"activity change, negative = inhibition",[1],-8.64%
same,"activity change, negative = inhibition",[2],-9.86%
same,"activity change, negative = inhibition",[3],-4.49%
same,"activity change, negative = inhibition",[4],-11.1%
same,"activity change, negative = inhibition",[5],-12.5%
CNc1ncnc2c1ncn2[C@@H]1O[C@H](CO)[C@@H](O)[C@H]1O,"activity change, negative = inhibition",[1],88%
same,"activity change, negative = inhibition",[2],321%
same,"activity change, negative = inhibition",[3],43.3%
same,"activity change, negative = inhibition",[4],214%
same,"activity change, negative = inhibition",[5],50.7%
C/C=C(/COC(=O)/C(C)=C/C)C(=O)OC/C=C/c1ccc(OC)cc1,"activity change, negative = inhibition",[1],-2.33%
same,"activity change, negative = inhibition",[2],-2.8%
same,"activity change, negative = inhibition",[3],5.4%
same,"activity change, negative = inhibition",[4],-15.8%
same,"activity change, negative = inhibition",[5],-0.846%
C=C[C@]1(C)C[C@@H](OC(=O)CSC2C[C@H]3CC[C@@H](C2)N3C)[C@]2(C)[C@H](C)CC[C@]3(CCC(=O)[C@H]32)[C@@H](C)[C@@H]1O (stereo partly drawn),"activity change, negative = inhibition",[1],-6.39%
same,"activity change, negative = inhibition",[2],3.15%
same,"activity change, negative = inhibition",[3],-17.9%
same,"activity change, negative = inhibition",[4],-14.2%
same,"activity change, negative = inhibition",[5],1.39%
CC1(C(=O)NCc2ccc(F)cc2)Cn2cnc(C(=O)NCCCc3ccccc3)c2C(=O)N1C1CC1 (stereo not drawn),"activity change, negative = inhibition",[1],-13.6%
same,"activity change, negative = inhibition",[2],-5%
same,"activity change, negative = inhibition",[3],-14.1%
same,"activity change, negative = inhibition",[4],-9.93%
same,"activity change, negative = inhibition",[5],-10%
Cn1c(=O)c2ccc(C(=O)NC3CCCCC3)cc2n2c(SCC(N)=O)nnc12,"activity change, negative = inhibition",[1],-0.487%
same,"activity change, negative = inhibition",[2],2.4%
same,"activity change, negative = inhibition",[3],6.55%
same,"activity change, negative = inhibition",[4],6.76%
same,"activity change, negative = inhibition",[5],6.74%
CCCn1c(=O)c2ccc(C(=O)NC(C)C)cc2n2c(=O)n(CC(=O)Nc3ccc(CC)cc3)nc12,"activity change, negative = inhibition",[1],1.76%
same,"activity change, negative = inhibition",[2],0.316%
same,"activity change, negative = inhibition",[3],2.49%
same,"activity change, negative = inhibition",[4],2.52%
same,"activity change, negative = inhibition",[5],3.89%
COc1ccc(C2c3cccn3-c3sc4c(c3CN2C(=O)NCc2cccc(OC)c2)CCCC4)cc1 (stereo not drawn),"activity change, negative = inhibition",[1],-6.56%
same,"activity change, negative = inhibition",[2],3.79%
same,"activity change, negative = inhibition",[3],3.38%
same,"activity change, negative = inhibition",[4],-2.21%
same,"activity change, negative = inhibition",[5],-0.086%
